According to PubChem BioAssay AID445 (National Center for Advancing Translational Sciences (NCATS), 2006):
Among all 110,000 compounds or so, about 40 (0.04%) were called active. The shares of active, inactive and inconclusive entries below differ from those in the screen. The call rests on the fitted dose curve; in most records, active means well fitted curve in the direction sought with a large enough effect in the signal ratio (not every such curve was filed as active); inconclusive means small, poorly fitted or top-dose-only effect, or a change in a side signal; inactive means flat fitted curve, though single readings scatter; the % refers to the signal ratio. Where the call is inconclusive, the potency comes from a doubtful curve fit.

assay: IkB Signaling; details: ABC-DLBCL IkBa-CBG/CBR dual luciferase ratio (green luciferase fused to IkBa over red control in OCI-Ly3 lymphoma cells), 4 h; IkBa stabilization activation: at 57.1 µM (top of the series), scaled: untreated 0%, proteasome inhibitor 100% unless noted;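 on IkBa stabilization activation: 0% = basal untreated cells and 100% = reference inhibitor full response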
How it was run: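 Curves were fitted separately to fusion (green), unfused (red) and ratio luminescence, then classed by r2, magnitude and activity. Cells: OCI-Ly3, 4 h compound plus doxycycline at 37C; 10 uM MG-132 defined full response.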
Potency means the concentration at half of the fitted maximal effect.

Question: For `CC(C)[C@@H](CC(=O)N[C@@H]1CCNC[C@H]1C(=O)N[C@H](CC(=O)N[C@@H](CCC(=O)O)CC(=O)O)Cc1c[nH]c2ccccc12)NC(=O)C[C@H](Cc1c[nH]c2ccccc12)NC(=O)[C@@H]1CCCC[C@H]1N`, which “IkBa stabilization activation” value is on record?
Answer: The value was inactive: 2.11%.

Question: With `Cc1cc(C)n(CC(O)COc2cccc(OCC(O)Cn3nc(C)cc3C)c2)n1` (configuration not stated) as the compound, how does the IkBa stabilization activation read?
Answer: The IkBa stabilization activation was inconclusive: -0.449% [signal inhibitor].

Question: Which Potency does the source give for `N#C/C(=C\c1ccc(-c2ccc(C(=O)O)cc2)o1)c1nc2ccccc2[nH]1` here?
Answer: Its Potency is inconclusive: 31.6 µM [signal inhibitor, partial curve].

Question: For `CCCCOc1ccc(C(=O)N(Cc2nc(-c3ccc(Cl)cc3)no2)C(C)C)cc1`, which IkBa stabilization activation is on record?
Answer: The IkBa stabilization activation was inconclusive: -0.948% [signal inhibitor].

Question: Which IkBa stabilization activation does the source give for `CC(C)=CCC/C(C)=C/CO` here?
Answer: Its IkBa stabilization activation is inactive: 0.137% [at 11.4 µM, scaled: untreated 0%, proteasome inhibitor 100%].

Question: Which IkBa stabilization activation does the source give for `Cn1c(=O)oc2cc(S(=O)(=O)N3CCC(C(=O)N4CCN(c5cccc(Cl)c5)CC4)CC3)ccc21` here?
Answer: The IkBa stabilization activation was inconclusive: 1.48% [signal inhibitor].

Question: With `CCOc1ccc(CCNC(=O)c2ccc(CS(=O)Cc3ccc(Cl)cc3)o2)cc1` (configuration not stated) as the compound, how does the IkBa stabilization activation read?
Answer: The IkBa stabilization activation was inconclusive: 1.91% [signal inhibitor].

Question: For `Nc1cccc(-c2nc3ccc(N)cc3s2)c1`, which IkBa stabilization activation is on record?
Answer: The IkBa stabilization activation was inconclusive: 9.13% [signal inhibitor].

Question: For `CC(C)c1nc(SCC(=O)N2CCCC2)c2ccccc2n1`, which IkBa stabilization activation is on record?
Answer: The IkBa stabilization activation was inconclusive: 1.28% [signal inhibitor].

Question: For `CCN(CC)c1ccc2c(c1)C(=O)N(C)C2=O`, which “IkBa stabilization activation” value is on record?
Answer: Its value is inactive: 1.25%.

Question: With `Cc1ccc(CSc2nc3c(c(=O)[nH]2)C(c2cccc(F)c2F)CC(=O)N3)cc1` (configuration not stated) as the compound, how does the “IkBa stabilization activation” value read?
Answer: Its value is inactive: -0.398%.

Question: With `CC(C)c1ccc(NC(=O)C(Cc2ccccc2)NS(=O)(=O)c2ccc3c(c2)CCC(=O)N3)cc1` (configuration not stated) as the compound, how does the IkBa stabilization activation read?
Answer: The IkBa stabilization activation was inconclusive: 0.63% [signal inhibitor].

Question: For `COc1cc2ncc3c(-c4ccccc4)nn(-c4ccc(C)cc4)c3c2cc1OC`, which IkBa stabilization activation is on record?
Answer: Its IkBa stabilization activation is inconclusive: 1.95% [signal inhibitor].

Question: For `Cc1ccc(OCC(=O)Nc2ccc3nc(SCC(=O)N(C)c4ccccc4)sc3c2)cc1`, which IkBa stabilization activation is on record?
Answer: The IkBa stabilization activation was inconclusive: 0.129% [signal inhibitor].

Question: For `COc1ccc(NC(=O)c2sc3nc[nH]c(=O)c3c2C)cc1OC`, which “IkBa stabilization activation” value is on record?
Answer: Its value is inactive: -2.84%.

Question: For `COc1cc(NC(=O)c2ncn(-c3ccccc3)n2)cc(OC)c1`, which Potency is on record?
Answer: Its Potency is inconclusive: 10 µM [signal inhibitor, partial curve].

Question: Which “IkBa stabilization activation” value does the source give for `COc1ccc(C2=Nn3c(nnc3-c3ccc(OC)cc3)SC2)cc1` here?
Answer: Its value is inactive: 3.81%.

Question: For `Cn1ncc(C(=O)N2CCN(c3ccccc3F)CC2)c1C1CCN(C(=O)OC(C)(C)C)CC1`, which IkBa stabilization activation is on record?
Answer: The IkBa stabilization activation was inconclusive: 3.58% [signal inhibitor].

Question: Which “IkBa stabilization activation” value does the source give for `CC(=O)c1ccc(NC(=O)CSc2nccn2Cc2ccc3c(c2)OCO3)cc1` here?
Answer: Its value is inactive: -0.541%.

Question: For `CC(C)(C)n1nnnc1C(c1cccs1)N(Cc1ccccc1)Cc1cccnc1` (configuration not stated), which “IkBa stabilization activation” value is on record?
Answer: Its value is inactive: 0.549%.

Question: Which IkBa stabilization activation does the source give for `C/C(CCc1oc2ccccc2c1-c1ccc(C)o1)=N/O` here?
Answer: The IkBa stabilization activation was inconclusive: 2.02% [signal inhibitor].

Question: Which Potency does the source give for `O=C1c2ccccc2C(=O)C12Cc1ccccc1N1CCN(c3ccccc3)CC12` (configuration not stated) here?
Answer: Its Potency is inconclusive: 15.8 µM [signal inhibitor, partial curve].

Question: For `CCOc1ccccc1-n1nnc(S(=O)(=O)c2ccc(C)cc2)c1N`, which “IkBa stabilization activation” value is on record?
Answer: The value was inactive: 6.54%.

Question: With `C[C@@]12CC[C@@H]3[C@@H](CC[C@H]4C[C@@H](O)CC[C@]43C)[C@H]1CC[C@@H]2c1cc(C(F)(F)F)n[nH]1` as the compound, how does the IkBa stabilization activation read?
Answer: The IkBa stabilization activation was inactive: -0.581% [at 11.4 µM, scaled: untreated 0%, proteasome inhibitor 100%].

Question: Which IkBa stabilization activation does the source give for `CCOc1ccc(NC(=O)c2oc3ccccc3c2NC(=O)Cc2cccc(C)c2)cc1` here?
Answer: The IkBa stabilization activation was inconclusive: 3.44% [signal inhibitor].

Question: With `O=C(CCCOc1ccccc1)Nc1cccc(C(=O)O)c1` as the compound, how does the Potency read?
Answer: Its Potency is inconclusive: 25.1 µM [signal inhibitor, partial curve].

Question: Which IkBa stabilization activation does the source give for `COc1ccc(OC)c(NS(=O)(=O)c2ccc(Br)s2)c1` here?
Answer: Its IkBa stabilization activation is inconclusive: 5.15% [signal inhibitor].

Question: For `CC(C)c1ccc(NC(=O)CCNS(=O)(=O)c2cccc3nsnc23)cc1`, which IkBa stabilization activation is on record?
Answer: Its IkBa stabilization activation is inconclusive: -3.15% [signal inhibitor].

Question: For `COc1ccc(C(=O)Oc2ccc(C(c3c(C)[nH][nH]c3=O)c3c(C)[nH][nH]c3=O)cc2OC)cc1`, which IkBa stabilization activation is on record?
Answer: The IkBa stabilization activation was inconclusive: 12.1% [signal inhibitor].

Question: With `CCCN1C(C(=O)c2ccccc2)=C(OC(=O)c2ccc(C)cc2)c2ccccc2S1(=O)=O` as the compound, how does the IkBa stabilization activation read?
Answer: Its IkBa stabilization activation is inconclusive: -1.74% [signal inhibitor].

Question: With `COc1ccc(NC(=O)c2c(C)oc3ccc(O)c(CN4CCOCC4)c23)cc1` as the compound, how does the IkBa stabilization activation read?
Answer: Its IkBa stabilization activation is inconclusive: -1.31% [signal inhibitor].

Question: Which Potency does the source give for `Cc1cccc(NC(=O)CSc2nc(=O)n(Cc3cccnc3)c3c2CCC3)c1` here?
Answer: Its Potency is inconclusive: 3.98 µM [signal inhibitor].
